Assay results as given in the supplement of paper PMC10126150.
Values marked as one replicate rest on one cluster of the flow cell; about a third of the high ones do not repeat.
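Note: ATP exposure 15 min at 22 °C before imaging.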

The sequences below were run on ATP (assay: switch fluorescence ratio, 500 uM ATP over buffer (Cy3 cluster intensity, sum of 5 cycles each) (fold (ratio)); higher = stronger signal-on switching upon ATP binding; sequences stand for … in TCGTCGGCAGCGTCAGATGTGTATAAGAGACAGTTTTTTTTTTTTTTTTTTTTTTTTT…TC). Conditions: aptamer strand: ATP DNA aptamer (quencher-CACCTGGGGGAGTATTGCGGAGGAAGG + anchor), 100 nM annealed; ATP concentration: 500 uM; one replicate.
How it was run: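 Clusters carrying Cy3-labelled switching strands on a modified Illumina MiSeq flow-cell were annealed to 100 nM quencher-labelled ATP aptamer and imaged in selection buffer. They were imaged again after 15 min with 500 uM ATP at 22 °C, over five buffer/ATP cycles with NaOH stripping and re-annealing in between. For each cluster, the fluorescence ratio is the summed Cy3 intensity of the target cycles divided by that of the buffer cycles, averaged per switch-domain sequence. Clusters outside 100-1000 RFU were left out.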
Work on CGACTGGCGT yielded a switch fluorescence ratio of 1.02.
In the case of CGACTTTTTA, the switch fluorescence ratio is reported as 0.996.
CGAGAAACAT was tested, and the switch fluorescence ratio was 0.967.
Sequence CGAGAAATTG has a switch fluorescence ratio of 0.997.
In the case of CGAGAAGGCA, the switch fluorescence ratio is reported as 0.967.
In the case of CGAGAATAGG, the switch fluorescence ratio is reported as 1.01.
For CGAGACATGT, the switch fluorescence ratio was 1.
In the case of CGAGACGCGG, the switch fluorescence ratio is reported as 0.959.
In the case of CGAGAGGTAA, the switch fluorescence ratio is reported as 0.973.
CGAGATACTA showed a switch fluorescence ratio of 1.11.
CGAGATGGGA gave a switch fluorescence ratio of 0.997.
Work on CGAGATTGGG yielded a switch fluorescence ratio of 1.
For CGAGCAGACC, the switch fluorescence ratio was 2.52.
CGAGCCGCTC gave a switch fluorescence ratio of 1.04.
CGAGCCTGCA was tested, and the switch fluorescence ratio was 0.998.
Work on CGAGCGTTAT yielded a switch fluorescence ratio of 1.28.
CGAGCGTTGG gave a switch fluorescence ratio of 0.997.
CGAGCTAGTT gave a switch fluorescence ratio of 1.01.
In the case of CGAGCTGCGT, the switch fluorescence ratio is reported as 1.02.
For CGAGGAGGCG, the switch fluorescence ratio was 0.932.
CGAGGCCTCA showed a switch fluorescence ratio of 1.01.
CGAGGCGTAG was tested, and the switch fluorescence ratio was 1.09.
CGAGGGACGA showed a switch fluorescence ratio of 1.02.
With CGAGGGCACA the switch fluorescence ratio was 1.1.
With CGAGGGCTTG the switch fluorescence ratio was 1.03.
For CGAGTCCCAA, the switch fluorescence ratio was 2.11.
CGAGTGAGTA was tested, and the switch fluorescence ratio was 1.05.
Sequence CGAGTTCGCT has a switch fluorescence ratio of 0.982.
In the case of CGAGTTTATA, the switch fluorescence ratio is reported as 0.982.
For CGATAAAA, the switch fluorescence ratio was 0.993.
Work on CGATAAAGAA yielded a switch fluorescence ratio of 1.03.
For CGATAATA, the switch fluorescence ratio was 1.04.
In the case of CGATACCGGC, the switch fluorescence ratio is reported as 0.964.
CGATACCTGA gave a switch fluorescence ratio of 1.05.
CGATACGTCT gave a switch fluorescence ratio of 1.58.
For CGATAGACAG, the switch fluorescence ratio was 0.982.
For CGATAGACT, the switch fluorescence ratio was 1.03.
CGATAGGTCT was tested, and the switch fluorescence ratio was 1.01.
Sequence CGATAGTTGC has a switch fluorescence ratio of 1.03.
With CGATATCCAG the switch fluorescence ratio was 1.03.
CGATCAACCC showed a switch fluorescence ratio of 1.04.
CGATCACGGA gave a switch fluorescence ratio of 1.07.
For CGATCAGAAT, the switch fluorescence ratio was 0.997.
For CGATCCCAGT, the switch fluorescence ratio was 1.48.
In the case of CGATCGTACG, the switch fluorescence ratio is reported as 0.999.
Work on CGATCTCCTA yielded a switch fluorescence ratio of 0.985.
CGATCTCTTC showed a switch fluorescence ratio of 1.07.
Sequence CGATCTGTAT has a switch fluorescence ratio of 0.981.
Work on CGATCTTTTT yielded a switch fluorescence ratio of 0.975.
For CGATGAATGG, the switch fluorescence ratio was 1.09.
CGATGACACT showed a switch fluorescence ratio of 0.996.
With CGATGAGAGG the switch fluorescence ratio was 0.973.
In the case of CGATGCGAA, the switch fluorescence ratio is reported as 1.14.
For CGATGGG, the switch fluorescence ratio was 1.01.
With CGATGGGGC the switch fluorescence ratio was 0.997.
Sequence CGATGTTCTA has a switch fluorescence ratio of 1.
For CGATGTTGGC, the switch fluorescence ratio was 1.04.
In the case of CGATTACTAG, the switch fluorescence ratio is reported as 1.02.
In the case of CGATTAGACC, the switch fluorescence ratio is reported as 1.03.
Sequence CGATTATGGC has a switch fluorescence ratio of 1.03.
CGATTCAAAG gave a switch fluorescence ratio of 1.01.
CGATTCGAC showed a switch fluorescence ratio of 1.08.
Work on CGATTGCGAA yielded a switch fluorescence ratio of 0.987.
In the case of CGATTGGGAA, the switch fluorescence ratio is reported as 1.01.
With CGATTTACAG the switch fluorescence ratio was 0.99.
With CGATTTAGAC the switch fluorescence ratio was 1.05.
CGATTTTACG was tested, and the switch fluorescence ratio was 1.
CGATTTTACT gave a switch fluorescence ratio of 1.04.
With CGCAAAAATT the switch fluorescence ratio was 5.13.
CGCAAAGGCC was tested, and the switch fluorescence ratio was 1.69.
With CGCAACTCTT the switch fluorescence ratio was 2.05.
With CGCAATCGGT the switch fluorescence ratio was 5.02.
CGCAATTCCG gave a switch fluorescence ratio of 2.25.
CGCACAATTT was tested, and the switch fluorescence ratio was 1.06.
In the case of CGCACAGAAG, the switch fluorescence ratio is reported as 0.967.
With CGCACATAGG the switch fluorescence ratio was 1.29.
CGCACATGTC gave a switch fluorescence ratio of 1.76.
With CGCACGACGA the switch fluorescence ratio was 1.52.
For CGCACGAGGG, the switch fluorescence ratio was 1.02.
For CGCACGTCCA, the switch fluorescence ratio was 1.1.
For CGCACTGAGG, the switch fluorescence ratio was 0.978.
For CGCAGTAACT, the switch fluorescence ratio was 2.34.
CGCAGTTTTG was tested, and the switch fluorescence ratio was 0.957.
CGCATAAAGT was tested, and the switch fluorescence ratio was 1.05.
Sequence CGCATAATGG has a switch fluorescence ratio of 1.9.
For CGCATAGTGC, the switch fluorescence ratio was 1.8.
CGCATGTGCA showed a switch fluorescence ratio of 1.05.
In the case of CGCATGTGTA, the switch fluorescence ratio is reported as 0.997.
For CGCATTTGTT, the switch fluorescence ratio was 1.07.
Work on CGCCAAATAT yielded a switch fluorescence ratio of 1.73.
CGCCAATCAG was tested, and the switch fluorescence ratio was 1.05.
CGCCACTTTC gave a switch fluorescence ratio of 1.19.
CGCCAGCTGC was tested, and the switch fluorescence ratio was 1.17.
For CGCCAGGCAA, the switch fluorescence ratio was 3.43.
Sequence CGCCAGTAAG has a switch fluorescence ratio of 1.04.
For CGCCCAAATT, the switch fluorescence ratio was 1.06.
CGCCCGGCTC gave a switch fluorescence ratio of 1.04.
Sequence CGCCCTGACA has a switch fluorescence ratio of 1.03.
With CGCCCTGGT the switch fluorescence ratio was 1.53.
Sequence CGCCGAACTT has a switch fluorescence ratio of 1.02.
Sequence CGCCGATTCT has a switch fluorescence ratio of 1.03.
CGCCGCGATG was tested, and the switch fluorescence ratio was 4.55.
With CGCCGCGCCT the switch fluorescence ratio was 1.34.
CGCCGGCGAT gave a switch fluorescence ratio of 0.992.
For CGCCGGGTGT, the switch fluorescence ratio was 2.13.
CGCCGGTAGA was tested, and the switch fluorescence ratio was 1.06.
For CGCCGTGGGG, the switch fluorescence ratio was 1.04.
CGCCTAAGAA showed a switch fluorescence ratio of 0.957.
CGCCTAAGGC gave a switch fluorescence ratio of 1.05.
For CGCCTCGGAC, the switch fluorescence ratio was 1.32.
In the case of CGCCTCGTTC, the switch fluorescence ratio is reported as 0.995.
Sequence CGCCTGCCGA has a switch fluorescence ratio of 0.995.
With CGCCTTATCG the switch fluorescence ratio was 1.02.
In the case of CGCCTTCTGT, the switch fluorescence ratio is reported as 0.978.
In the case of CGCGAGGGCG, the switch fluorescence ratio is reported as 0.973.
For CGCGAGTCGC, the switch fluorescence ratio was 1.03.
In the case of CGCGATTCTT, the switch fluorescence ratio is reported as 1.05.
CGCGCAAGCG was tested, and the switch fluorescence ratio was 0.986.
In the case of CGCGCACTGG, the switch fluorescence ratio is reported as 1.32.
CGCGCAGTGT gave a switch fluorescence ratio of 0.997.
CGCGCCGGGA gave a switch fluorescence ratio of 1.05.
With CGCGCCTAAG the switch fluorescence ratio was 0.992.
Sequence CGCGCCTGAT has a switch fluorescence ratio of 0.953.
CGCGCTCAAA showed a switch fluorescence ratio of 1.01.
In the case of CGCGGAATT, the switch fluorescence ratio is reported as 1.03.
CGCGGCAGTC was tested, and the switch fluorescence ratio was 1.11.
For CGCGGCTGGA, the switch fluorescence ratio was 1.
CGCGGGAGAT showed a switch fluorescence ratio of 1.03.
In the case of CGCGGTG, the switch fluorescence ratio is reported as 0.972.
CGCGTAGTGC showed a switch fluorescence ratio of 1.17.
CGCGTCGACT gave a switch fluorescence ratio of 0.98.
Work on CGCGTTAATG yielded a switch fluorescence ratio of 1.02.
CGCGTTACTT gave a switch fluorescence ratio of 1.23.
For CGCGTTTGC, the switch fluorescence ratio was 1.1.
CGCTAATACA gave a switch fluorescence ratio of 5.43.
CGCTAATCCG showed a switch fluorescence ratio of 1.04.
CGCTAGAAAA gave a switch fluorescence ratio of 1.04.
Work on CGCTAGCCTT yielded a switch fluorescence ratio of 1.04.
In the case of CGCTAGCTGA, the switch fluorescence ratio is reported as 1.01.
CGCTAGGTGA was tested, and the switch fluorescence ratio was 1.29.
CGCTATATGA gave a switch fluorescence ratio of 1.9.
Work on CGCTATCACC yielded a switch fluorescence ratio of 2.09.
CGCTATCAGG was tested, and the switch fluorescence ratio was 1.08.
CGCTATGCGT showed a switch fluorescence ratio of 1.02.
Work on CGCTCTACCA yielded a switch fluorescence ratio of 1.1.
With CGCTGCGATT the switch fluorescence ratio was 1.01.
CGCTGTGGTA showed a switch fluorescence ratio of 0.995.
CGCTGTTGGG gave a switch fluorescence ratio of 0.997.
Work on CGCTTAAACG yielded a switch fluorescence ratio of 1.07.
CGCTTAGTC was tested, and the switch fluorescence ratio was 1.13.
CGCTTCCCTT was tested, and the switch fluorescence ratio was 1.14.
CGCTTCTTAC was tested, and the switch fluorescence ratio was 3.14.
CGCTTGACCG was tested, and the switch fluorescence ratio was 0.987.
CGCTTGCCTT showed a switch fluorescence ratio of 1.02.
Work on CGCTTTAGTA yielded a switch fluorescence ratio of 1.
CGCTTTGACA was tested, and the switch fluorescence ratio was 0.997.
CGGAAAAGAT gave a switch fluorescence ratio of 1.
Sequence CGGAACGGCT has a switch fluorescence ratio of 1.01.
With CGGAAGTCAC the switch fluorescence ratio was 1.2.
In the case of CGGAATTGCA, the switch fluorescence ratio is reported as 0.991.
Work on CGGACACACC yielded a switch fluorescence ratio of 1.88.
CGGACGAC gave a switch fluorescence ratio of 1.08.
For CGGACTTGGA, the switch fluorescence ratio was 1.05.
Work on CGGACTTTCT yielded a switch fluorescence ratio of 1.
In the case of CGGAGAACTT, the switch fluorescence ratio is reported as 1.01.
CGGAGAGGAG showed a switch fluorescence ratio of 0.975.
With CGGAGCACAG the switch fluorescence ratio was 3.57.
CGGAGCGGCC gave a switch fluorescence ratio of 2.48.
For CGGAGGAGTT, the switch fluorescence ratio was 0.957.
For CGGAGGCTGC, the switch fluorescence ratio was 1.04.
CGGAGTACGC gave a switch fluorescence ratio of 1.32.
With CGGATATGA the switch fluorescence ratio was 0.986.
In the case of CGGATCTCGA, the switch fluorescence ratio is reported as 1.
CGGATCTGAT was tested, and the switch fluorescence ratio was 0.999.
Sequence CGGATGCTCT has a switch fluorescence ratio of 0.974.
CGGATTAAGA was tested, and the switch fluorescence ratio was 0.983.
CGGATTCTCT showed a switch fluorescence ratio of 0.941.
CGGATTTATT was tested, and the switch fluorescence ratio was 0.982.
For CGGATTTCTA, the switch fluorescence ratio was 0.997.
CGGCAATTAA gave a switch fluorescence ratio of 3.93.
CGGCACGGGG was tested, and the switch fluorescence ratio was 1.01.
CGGCACGTAG gave a switch fluorescence ratio of 1.07.
Sequence CGGCAGGAAC has a switch fluorescence ratio of 1.07.
CGGCAGTATA gave a switch fluorescence ratio of 1.02.
For CGGCATAAAG, the switch fluorescence ratio was 1.02.
For CGGCATGATT, the switch fluorescence ratio was 1.01.
Work on CGGCCAATTC yielded a switch fluorescence ratio of 1.16.
In the case of CGGCCAGTAC, the switch fluorescence ratio is reported as 3.6.
Sequence CGGCCATGGA has a switch fluorescence ratio of 0.962.
CGGCCGGAGG gave a switch fluorescence ratio of 0.978.
With CGGCCGGGGG the switch fluorescence ratio was 1.01.
In the case of CGGCCTT, the switch fluorescence ratio is reported as 1.06.
For CGGCGCAGCA, the switch fluorescence ratio was 1.02.
CGGCGCATCT gave a switch fluorescence ratio of 1.28.
CGGCGGAGAG showed a switch fluorescence ratio of 0.966.
For CGGCGTACGT, the switch fluorescence ratio was 1.04.
CGGCGTCGGA gave a switch fluorescence ratio of 1.05.
Sequence CGGCGTCTGG has a switch fluorescence ratio of 0.996.
For CGGCTGAACG, the switch fluorescence ratio was 1.01.
CGGCTGGGAG gave a switch fluorescence ratio of 1.02.
CGGCTGTCGT was tested, and the switch fluorescence ratio was 1.02.
